Experimental data as given in the BET-seq Pho4 binding data (Le et al. 2018).
Some of the results follow. Values were computed here from the reads of four pooled replicates and scatter widely.

target: T1, Pho4 (S. cerevisiae) (UniProt P07270); experiment: relative binding free energy (BET-seq); higher = weaker binding; settings: reference: library average
T1 sequence: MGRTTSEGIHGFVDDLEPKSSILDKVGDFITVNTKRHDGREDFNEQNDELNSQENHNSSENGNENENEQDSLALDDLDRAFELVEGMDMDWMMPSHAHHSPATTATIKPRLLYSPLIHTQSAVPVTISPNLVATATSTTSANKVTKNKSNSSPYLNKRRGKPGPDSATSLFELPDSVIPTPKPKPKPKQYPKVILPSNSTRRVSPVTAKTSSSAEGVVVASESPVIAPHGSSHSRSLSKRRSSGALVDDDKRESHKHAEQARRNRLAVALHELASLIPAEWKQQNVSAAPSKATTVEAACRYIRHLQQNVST

Sequence	relative binding free energy [kcal/mol]
TTAGACACGTGAGTAG	0.12
GTACGCACGTGTAGTG	0.03
TATTGCACGTGGTAGA	-0.03
ATTGACACGTGTATTA	0.15
TTGAGCACGTGTGGAT	0.02
TTAAGCACGTGAGGGC	0.18
TCTGGCACGTGTGATT	0.16
GCAAACACGTGTGGTG	0.07
GGTAACACGTGGATTG	-0.12
AGTAGCACGTGATGCG	0.16
GTTGGCACGTGTCTAA	0.17
GGTTTCACGTGAACGT	0.39
GTAGACACGTGAGAGG	0.32
AATGACACGTGAGTAT	0.33
GGTGTCACGTGAGCGT	0.26
TGGCGCACGTGGGGGC	-0.13
TTAGTCACGTGTAGAT	0.3
TGAAACACGTGGGATG	-0.14
GAAATCACGTGGATGT	0.2
TATGTCACGTGCAGGA	0.11
CTGTACACGTGTGAGT	0.1
TGTTACACGTGACGGT	0.04
TTGGTCACGTGACAGT	0.27

Sequence	relative binding free energy [kcal/mol]
TAGAGCACGTGAGGTG	0.16
GGACGCACGTGTTGGT	-0.14
GGGAGCACGTGTTTGC	-0.13
TGGTCCACGTGTAGTT	0.12
AGCTTCACGTGGGGTG	0.12
TATCACACGTGGTAGG	-0.05
GAATGCACGTGGCGTG	-0.03
GATAACACGTGTTTTA	0.16
TTTTGCACGTGTACTG	0.09
TCTTTCACGTGTCTAT	0.36
TTGTTCACGTGACGCT	0.26
GAGGTCACGTGCAGTG	0.18
TACAACACGTGGGGGG	-0.14
CAGTGCACGTGGGTGA	-0.12
GGTTGCACGTGGCGGA	0.01
TGTTACACGTGCGTCG	0.04
TTGGTCACGTGGAGTG	0.13
TCTGGCACGTGTCGTG	-0.14
TATATCACGTGACAGG	0.39
CTGTGCACGTGCTTTT	-0.11
TGGATCACGTGTAGGC	0.22
GTATTCACGTGTGTTG	0.27
AGGTGCACGTGCTATG	-0.26

Sequence	relative binding free energy [kcal/mol]
GCACTCACGTGGGGTG	0.02
TCGTGCACGTGGTGAG	-0.09
AATGGCACGTGTGAAT	-0.01
TATAACACGTGGCGAT	0.06
TATAGCACGTGGTATA	-0.25
CGATTCACGTGGGGTT	0.13
ATCGACACGTGGGTAT	-0.05
GGGTTCACGTGATTGA	0.52
ATTTACACGTGTAAAT	-0.01
GAGTCCACGTGGTATT	0.05
GATACCACGTGTGGGG	-0.13
GGAGACACGTGTGAGG	0.09
TTGTTCACGTGGGTCT	0.17
GAGGTCACGTGATCTG	0.25
TTGTTCACGTGAGGTA	0.54
TACGGCACGTGGAGTT	0.05
CTTTGCACGTGTCTTG	-0.03
GGCATCACGTGAGTTT	0.25
TGTGCCACGTGGGAGC	-0.18
TGGACCACGTGATGTT	0.1
AATTTCACGTGAGTTG	0.35
TCTGTCACGTGGGACG	0.06
GTTCACACGTGATTAT	0.35

Sequence	relative binding free energy [kcal/mol]
CGGGTCACGTGATTCT	0.26
AAGTGCACGTGTGGCG	0.04
GGAGCCACGTGTGTTT	0.16
CGGTGCACGTGGCGTT	-0.16
GTGTCCACGTGGTTCG	0.11
GTGTTCACGTGTACGT	0.4
TCGTGCACGTGGGTGG	-0.12
ATGTGCACGTGTCTTG	-0.19
GTGCTCACGTGTAGTT	0.26
GGATTCACGTGTTTTA	0.26
AAGTTCACGTGTAGGG	0.3
TGGTGCACGTGGTGCG	-0.05
ACTGGCACGTGTGAAG	-0.02
AGTGGCACGTGGGTAG	-0.29
TTGGACACGTGGTCGA	-0.22
GTGGGCACGTGCGACA	-0.01
GAGATCACGTGTAGGG	0.07
GACGGCACGTGGGGAG	-0.19
TGTTGCACGTGCGTTT	-0.12
TAAAGCACGTGGGTGT	-0.18
TCTGTCACGTGTTCGT	0.03
TTGCGCACGTGGATTG	-0.07
GTCGGCACGTGTATGA	0.11

Sequence	relative binding free energy [kcal/mol]
ATCGTCACGTGTTAGT	0.01
TTTTTCACGTGACGAT	0.35
TGGTTCACGTGGTGCC	0.26
GCCTGCACGTGGGTGT	-0.28
CGAGGCACGTGTAATT	0.11
TAAAGCACGTGTGGAG	0
GTTCGCACGTGAGTAG	0.32
TGTGGCACGTGTTGAA	-0.06
GAAGGCACGTGTGCTT	0.03
TTGTGCACGTGTCCGG	-0.02
AGCGACACGTGTGTGT	-0.12
TTTGCCACGTGGCATT	-0.06
GCGTGCACGTGATGTT	0.18
GGGTCCACGTGGTGAC	0.15
AAGGGCACGTGACGTG	0.07
ATGATCACGTGGTTGA	0.09
CGAAGCACGTGGTGGA	0.05
TTTGGCACGTGCTCGG	-0.12
TAGGGCACGTGATATA	0
TTCGGCACGTGAGTAG	0.05
TCCGTCACGTGGGTAG	-0.08
AGTTACACGTGGACGT	0.09
TGAGTCACGTGTGGTA	0.14
